# Experimental data from the supplement of paper PMC8728848.
# The other results are listed elsewhere or left out.
# How the values were obtained:
# Experiment in all cases: glycan array binding signal (z-score within array); higher = stronger binding
# Conditions in all cases: glycan notation: IUPAC condensed, linker removed
# [1] = molecular target: GlcNAc(a1-6)Gal(b1-4)GlcNAc
# How it was run: (§1)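 Columns mapping to the same glycan were averaged after glycan names were converted to IUPAC-condensed notation. The data come from 3228 arrays in the Consortium for Functional Glycomics database, limited to those with an available protein sequence. Binding is reported as a within-array Z-score averaged across arrays of one protein sequence and across linkers.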
# [2] = molecular target: GlcNAc(b1-2)Gal(b1-3)GalNAc
# How it was run: as §1
# [3] = molecular target: GlcNAc(b1-2)Man(a1-3)[GlcNAc(b1-2)Man(a1-6)]Man(b1-4)GlcNAc(b1-4)GlcNAc
# How it was run: as §1
# [4] = molecular target: GlcNAc(b1-2)Man(a1-3)[GlcNAc(b1-2)Man(a1-6)]Man(b1-4)GlcNAc(b1-4)[Fuc(a1-6)]GlcNAc
# How it was run: as §1
# [5] = molecular target: GlcNAc(b1-2)Man(a1-3)[GlcNAc(b1-4)][GlcNAc(b1-2)Man(a1-6)]Man(b1-4)GlcNAc(b1-4)GlcNAc
# How it was run: as §1
# [6] = molecular target: GlcNAc(b1-2)Man(a1-3)[GlcNAc(b1-4)][GlcNAc(b1-2)Man(a1-6)]Man(b1-4)GlcNAc(b1-4)[Fuc(a1-6)]GlcNAc
# How it was run: as §1
# [7] = molecular target: GlcNAc(b1-2)[GlcNAc(b1-4)]Man(a1-3)[GlcNAc(b1-2)Man(a1-6)]Man(b1-4)GlcNAc(b1-4)GlcNAc
# How it was run: as §1
# [8] = molecular target: GlcNAc(b1-2)[GlcNAc(b1-4)]Man(a1-3)[GlcNAc(b1-4)][GlcNAc(b1-2)Man(a1-6)]Man(b1-4)GlcNAc(b1-4)GlcNAc
# How it was run: as §1
# [9] = molecular target: GlcNAc(b1-2)[GlcNAc(b1-4)]Man(a1-3)[GlcNAc(b1-4)][GlcNAc(b1-2)[GlcNAc(b1-6)]Man(a1-6)]Man(b1-4)GlcNAc(b1-4)GlcNAc
# How it was run: as §1
# [10] = molecular target: GlcNAc(b1-2)[GlcNAc(b1-4)]Man(a1-3)[GlcNAc(b1-4)][GlcNAc(b1-2)[GlcNAc(b1-6)]Man(a1-6)]Man(b1-4)GlcNAc(b1-4)[Fuc(a1-6)]GlcNAc
# How it was run: as §1
# [11] = molecular target: GlcNAc(b1-2)[GlcNAc(b1-6)]Man(a1-6)[GlcNAc(b1-2)Man(a1-3)]Man(b1-4)GlcNAc(b1-4)GlcNAc
# How it was run: as §1
# [12] = molecular target: GlcNAc(b1-2)[GlcNAc(b1-6)]Man(a1-6)[GlcNAc(b1-2)Man(a1-3)]Man(b1-4)GlcNAc(b1-4)[Fuc(a1-6)]GlcNAc
# How it was run: as §1
# [13] = molecular target: GlcNAc(b1-2)[GlcNAc(b1-6)]Man(a1-6)[GlcNAc(b1-4)][GlcNAc(b1-2)Man(a1-3)]Man(b1-4)GlcNAc(b1-4)GlcNAc
# How it was run: as §1
# GlcNAc(b1-3)Fuc = molecular target: GlcNAc(b1-3)Fuc
# How it was run: as §1
# GlcNAc(b1-3)Gal = molecular target: GlcNAc(b1-3)Gal
# How it was run: as §1
# [14] = molecular target: GlcNAc(b1-3)Gal(b1-3)GalNAc
# How it was run: as §1
# GlcNAc(b1-3)Gal(b1-4)Glc = molecular target: GlcNAc(b1-3)Gal(b1-4)Glc
# How it was run: as §1
# [15] = molecular target: GlcNAc(b1-3)Gal(b1-4)GlcNAc
# How it was run: as §1
# [16] = molecular target: GlcNAc(b1-3)Gal(b1-4)GlcNAc(b1-2)Man(a1-3)[GlcNAc(b1-3)Gal(b1-4)GlcNAc(b1-2)Man(a1-6)]Man(b1-4)GlcNAc(b1-4)GlcNAc
# How it was run: as §1
# [17] = molecular target: GlcNAc(b1-3)Gal(b1-4)GlcNAc(b1-2)Man(a1-3)[GlcNAc(b1-3)Gal(b1-4)GlcNAc(b1-2)Man(a1-6)]Man(b1-4)GlcNAc(b1-4)[Fuc(a1-6)]GlcNAc
# How it was run: as §1
# [18] = molecular target: GlcNAc(b1-3)Gal(b1-4)GlcNAc(b1-2)[GlcNAc(b1-3)Gal(b1-4)GlcNAc(b1-6)]Man(a1-6)[GlcNAc(b1-3)Gal(b1-4)GlcNAc(b1-2)Man(a1-3)]Man(b1-4)GlcNAc(b1-4)GlcNAc
# How it was run: as §1
# [19] = molecular target: GlcNAc(b1-3)Gal(b1-4)GlcNAc(b1-3)Gal(b1-4)GlcNAc
# How it was run: as §1
# [20] = molecular target: GlcNAc(b1-3)Gal(b1-4)GlcNAc(b1-3)Gal(b1-4)GlcNAc(b1-2)Man(a1-3)[GlcNAc(b1-3)Gal(b1-4)GlcNAc(b1-3)Gal(b1-4)GlcNAc(b1-2)Man(a1-6)]Man(b1-4)GlcNAc(b1-4)GlcNAc
# How it was run: as §1
# [21] = molecular target: GlcNAc(b1-3)Gal(b1-4)GlcNAc(b1-3)Gal(b1-4)GlcNAc(b1-2)Man(a1-3)[GlcNAc(b1-3)Gal(b1-4)GlcNAc(b1-3)Gal(b1-4)GlcNAc(b1-2)Man(a1-6)]Man(b1-4)GlcNAc(b1-4)[Fuc(a1-6)]GlcNAc
# How it was run: as §1
# [22] = molecular target: GlcNAc(b1-3)Gal(b1-4)GlcNAc(b1-3)Gal(b1-4)GlcNAc(b1-2)[GlcNAc(b1-3)Gal(b1-4)GlcNAc(b1-3)Gal(b1-4)GlcNAc(b1-6)]Man(a1-6)[GlcNAc(b1-3)Gal(b1-4)GlcNAc(b1-3)Gal(b1-4)GlcNAc(b1-2)Man(a1-3)]Man(b1-4)GlcNAc(b1-4)[Fuc(a1-6)]GlcNAc
# How it was run: as §1
# [23] = molecular target: GlcNAc(b1-3)Gal(b1-4)GlcNAc(b1-3)Gal(b1-4)GlcNAc(b1-3)Gal(b1-4)GlcNAc(b1-2)Man(a1-3)[GlcNAc(b1-3)Gal(b1-4)GlcNAc(b1-3)Gal(b1-4)GlcNAc(b1-3)Gal(b1-4)GlcNAc(b1-2)Man(a1-6)]Man(b1-4)GlcNAc(b1-4)GlcNAc
# How it was run: as §1
# [24] = molecular target: GlcNAc(b1-3)Gal(b1-4)GlcNAc(b1-3)Gal(b1-4)GlcNAc(b1-3)Gal(b1-4)GlcNAc(b1-2)Man(a1-3)[GlcNAc(b1-3)Gal(b1-4)GlcNAc(b1-3)Gal(b1-4)GlcNAc(b1-3)Gal(b1-4)GlcNAc(b1-2)Man(a1-6)]Man(b1-4)GlcNAc(b1-4)[Fuc(a1-6)]GlcNAc
# How it was run: as §1
# [25] = molecular target: GlcNAc(b1-3)Gal(b1-4)GlcNAc(b1-3)Gal(b1-4)GlcNAc(b1-3)Gal(b1-4)GlcNAc(b1-2)[GlcNAc(b1-3)Gal(b1-4)GlcNAc(b1-3)Gal(b1-4)GlcNAc(b1-3)Gal(b1-4)GlcNAc(b1-6)]Man(a1-6)[GlcNAc(b1-3)Gal(b1-4)GlcNAc(b1-3)Gal(b1-4)GlcNAc(b1-3)Gal(b1-4)GlcNAc(b1-2)Man(a1-3)]Man(b1-4)GlcNAc(b1-4)[Fuc(a1-6)]GlcNAc
# How it was run: as §1
# [26] = molecular target: GlcNAc(b1-3)Gal(b1-4)GlcNAc(b1-3)Gal(b1-4)GlcNAc(b1-3)Gal(b1-4)GlcNAc(b1-3)Gal(b1-4)GlcNAc(b1-2)Man(a1-3)[GlcNAc(b1-3)Gal(b1-4)GlcNAc(b1-3)Gal(b1-4)GlcNAc(b1-3)Gal(b1-4)GlcNAc(b1-3)Gal(b1-4)GlcNAc(b1-2)Man(a1-6)]Man(b1-4)GlcNAc(b1-4)GlcNAc
# How it was run: as §1
# [27] = molecular target: GlcNAc(b1-3)Gal(b1-4)GlcNAc(b1-3)Gal(b1-4)GlcNAc(b1-3)Gal(b1-4)GlcNAc(b1-3)Gal(b1-4)GlcNAc(b1-2)Man(a1-3)[GlcNAc(b1-3)Gal(b1-4)GlcNAc(b1-3)Gal(b1-4)GlcNAc(b1-3)Gal(b1-4)GlcNAc(b1-3)Gal(b1-4)GlcNAc(b1-2)Man(a1-6)]Man(b1-4)GlcNAc(b1-4)[Fuc(a1-6)]GlcNAc
# How it was run: as §1
# [28] = molecular target: GlcNAc(b1-3)Gal(b1-4)GlcNAc(b1-3)Gal(b1-4)GlcNAc(b1-3)Gal(b1-4)GlcNAc(b1-3)Gal(b1-4)GlcNAc(b1-2)[GlcNAc(b1-3)Gal(b1-4)GlcNAc(b1-3)Gal(b1-4)GlcNAc(b1-3)Gal(b1-4)GlcNAc(b1-3)Gal(b1-4)GlcNAc(b1-6)]Man(a1-6)[GlcNAc(b1-3)Gal(b1-4)GlcNAc(b1-3)Gal(b1-4)GlcNAc(b1-3)Gal(b1-4)GlcNAc(b1-3)Gal(b1-4)GlcNAc(b1-2)Man(a1-3)]Man(b1-4)GlcNAc(b1-4)[Fuc(a1-6)]GlcNAc
# How it was run: as §1
# [29] = molecular target: GlcNAc(b1-3)Gal(b1-4)GlcNAc(b1-3)Gal(b1-4)GlcNAc(b1-3)GalNAc
# How it was run: as §1
# [30] = molecular target: GlcNAc(b1-3)Gal(b1-4)GlcNAc(b1-3)GalNAc
# How it was run: as §1
# [31] = molecular target: GlcNAc(b1-3)Gal(b1-4)GlcNAc(b1-3)[GlcNAc(b1-3)Gal(b1-4)GlcNAc(b1-3)]GalNAc
# How it was run: as §1
# [32] = molecular target: GlcNAc(b1-3)Gal(b1-4)GlcNAc(b1-6)[Gal(b1-3)]GalNAc
# How it was run: as §1
# [33] = molecular target: GlcNAc(b1-3)Gal(b1-4)GlcNAc(b1-6)[GlcNAc(b1-3)Gal(b1-3)]GalNAc
# How it was run: as §1
# [34] = molecular target: GlcNAc(b1-3)Gal(b1-4)GlcNAc(b1-6)[GlcNAc(b1-3)]Gal(b1-4)GlcNAc
# How it was run: as §1
# GlcNAc(b1-3)GalNAc = molecular target: GlcNAc(b1-3)GalNAc
# How it was run: as §1
# GlcNAc(b1-3)Man = molecular target: GlcNAc(b1-3)Man
# How it was run: as §1
# [35] = molecular target: GlcNAc(b1-3)[GlcNAc(b1-4)][GlcNAc(b1-6)]GlcNAc
# How it was run: as §1
# [36] = molecular target: GlcNAc(b1-3)[GlcNAc(b1-6)]Gal(b1-4)GlcNAc
# How it was run: as §1
# [37] = molecular target: GlcNAc(b1-3)[GlcNAc(b1-6)]GalNAc
# How it was run: as §1
# [38] = molecular target: GlcNAc(b1-4)Gal(b1-4)GlcNAc
# How it was run: as §1
# GlcNAc(b1-4)GlcNAc = molecular target: GlcNAc(b1-4)GlcNAc
# How it was run: as §1
# [39] = molecular target: GlcNAc(b1-4)GlcNAc(b1-4)GlcNAc
# How it was run: as §1
binder,measurement,setting,value
Mg1lysM (Mycosphaerella graminicola) (protein) QRNPITITPQFDCGATNSQQYVARSGDTLTKIAQEIYHDVVGVCDIARANNLADPNRIDAGTPYTIPINCQTYDRNSCL,glycan array binding signal (z-score),[1],-0.098
same,glycan array binding signal (z-score),[2],-0.066
same,glycan array binding signal (z-score),[3],-0.057
same,glycan array binding signal (z-score),[4],-0.043
same,glycan array binding signal (z-score),[5],-0.08
same,glycan array binding signal (z-score),[6],-0.072
same,glycan array binding signal (z-score),[7],-0.068
same,glycan array binding signal (z-score),[8],-0.09
same,glycan array binding signal (z-score),[9],-0.088
same,glycan array binding signal (z-score),[10],-0.071
same,glycan array binding signal (z-score),[11],-0.074
same,glycan array binding signal (z-score),[12],-0.049
same,glycan array binding signal (z-score),[13],-0.052
same,glycan array binding signal (z-score),GlcNAc(b1-3)Fuc,-0.089
same,glycan array binding signal (z-score),GlcNAc(b1-3)Gal,-0.07
same,glycan array binding signal (z-score),[14],-0.066
same,glycan array binding signal (z-score),GlcNAc(b1-3)Gal(b1-4)Glc,-0.066
same,glycan array binding signal (z-score),[15],-0.08
same,glycan array binding signal (z-score),[16],-0.085
same,glycan array binding signal (z-score),[17],-0.067
same,glycan array binding signal (z-score),[18],-0.06
same,glycan array binding signal (z-score),[19],-0.069
same,glycan array binding signal (z-score),[20],-0.062
same,glycan array binding signal (z-score),[21],-0.049
same,glycan array binding signal (z-score),[22],-0.049
same,glycan array binding signal (z-score),[23],-0.071
same,glycan array binding signal (z-score),[24],-0.081
same,glycan array binding signal (z-score),[25],-0.052
same,glycan array binding signal (z-score),[26],-0.065
same,glycan array binding signal (z-score),[27],-0.063
same,glycan array binding signal (z-score),[28],-0.011
same,glycan array binding signal (z-score),[29],-0.058
same,glycan array binding signal (z-score),[30],-0.07
same,glycan array binding signal (z-score),[31],-0.078
same,glycan array binding signal (z-score),[32],-0.077
same,glycan array binding signal (z-score),[33],-0.06
same,glycan array binding signal (z-score),[34],-0.049
same,glycan array binding signal (z-score),GlcNAc(b1-3)GalNAc,-0.073
same,glycan array binding signal (z-score),GlcNAc(b1-3)Man,-0.057
same,glycan array binding signal (z-score),[35],-0.058
same,glycan array binding signal (z-score),[36],-0.072
same,glycan array binding signal (z-score),[37],-0.075
same,glycan array binding signal (z-score),[38],-0.09
same,glycan array binding signal (z-score),GlcNAc(b1-4)GlcNAc,-0.072
same,glycan array binding signal (z-score),[39],16.5
